A lower IC50 marks a more sensitive line; where the fit passes the top or lowest dose, that dose stands as a limit. The AUC spans the tested range (256-fold, ending at the top dose) of the same fit; values near 1 show little effect. For part of these data: Any top dose called inferred was derived from the fitted curves, not read from the paper.
Tests used:
Experiment in all cases: Viability of human cancer cell lines after 72 h of drug (GDSC screen)
CCT018159 = compound: CCc1cc(-c2n[nH]c(C)c2-c2ccc3c(c2)OCCO3)c(O)cc1O [CCT018159]; conditions: top dose 10 µM; top dose inferred
Protocol: (§1)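 Human cancer cell lines in 384-well plates, medium with 10% serum, drug for 72 h over a 256-fold dose range (nine 2-fold or five 4-fold steps up to the top dose). Adherent lines were fixed and stained with the nucleic acid dye Syto60, suspension lines read with resazurin; signal relative to control wells, capped at 0 and 100%. One two-parameter sigmoid per drug and line, fitted in a mixed model over all curves with the slope shared within a line.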

BIX02189 = compound: CN(C)Cc1cccc(N=C(c2ccccc2)c2c(O)[nH]c3cc(C(=O)N(C)C)ccc23)c1 [BIX02189]; conditions: top dose 20 µM; top dose inferred
Protocol: as §1

Vismodegib = compound: CS(=O)(=O)c1ccc(C(=O)Nc2ccc(Cl)c(-c3ccccn3)c2)c(Cl)c1 [Vismodegib]; conditions: top dose 10 µM; top dose inferred
Protocol: as §1

OSI-027 = compound: COc1cccc2cc(-c3nc([C@H]4CC[C@H](C(=O)O)CC4)n4ncnc(N)c34)[nH]c12 [OSI-027]; conditions: top dose 20 µM
Protocol: as §1

BMX-IN-1 (QL-XII-61) = compound: C=CC(=O)Nc1cc(-n2c(=O)ccc3cnc4ccc(-c5ccc(NS(C)(=O)=O)cc5)cc4c32)ccc1C [BMX-IN-1 (QL-XII-61)]; conditions: top dose 10 µM; top dose inferred
Protocol: as §1

VX-11e = compound: Cc1cnc(Nc2ccc(F)cc2Cl)nc1-c1c[nH]c(C(=O)N[C@H](CO)c2cccc(Cl)c2)c1 [VX-11e]; conditions: top dose 5.12 µM; top dose inferred
Protocol: as §1

Dimethyloxalylglycine = compound: COC(=O)CNC(=O)C(=O)OC [Dimethyloxalylglycine]; conditions: top dose 4000 µM; top dose inferred
Protocol: as §1

17-AAG = compound: C=CCNC1=C2C[C@@H](C)C[C@H](OC)[C@H](O)[C@@H](C)/C=C(\C)[C@H](OC(N)=O)[C@@H](OC)/C=C\C=C(/C)C(=O)NC(=CC1=O)C2=O [17-AAG]; conditions: top dose 1 µM
Protocol: as §1

Doxorubicin = compound: COc1cccc2c1C(=O)c1c(O)c3c(c(O)c1C2=O)C[C@@](O)(C(=O)CO)C[C@@H]3O[C@H]1C[C@H](N)[C@H](O)[C@H](C)O1 [Doxorubicin]; conditions: top dose 1.024 µM
Protocol: as §1

TG101348 = compound: Cc1cnc(Nc2ccc(OCCN3CCCC3)cc2)nc1Nc1cccc(S(=O)(=O)NC(C)(C)C)c1 [TG101348]; conditions: top dose 10.24 µM
Protocol: as §1

UNC1215 = compound: O=C(c1ccc(C(=O)N2CCC(N3CCCC3)CC2)c(Nc2ccccc2)c1)N1CCC(N2CCCC2)CC1 [UNC1215]; conditions: top dose 1 µM; top dose inferred
Protocol: as §1

Cell Line	AUC (CCT018159)	IC50 (CCT018159) [µM]	AUC (BIX02189)	IC50 (BIX02189) [µM]	AUC (Vismodegib)	IC50 (Vismodegib) [µM]	AUC (OSI-027)	IC50 (OSI-027) [µM]	AUC (BMX-IN-1 (QL-XII-61))	IC50 (BMX-IN-1 (QL-XII-61)) [µM]	AUC (VX-11e)	IC50 (VX-11e) [µM]	AUC (Dimethyloxalylglycine)	IC50 (Dimethyloxalylglycine) [µM]	AUC (17-AAG)	IC50 (17-AAG) [µM]	AUC (Doxorubicin)	IC50 (Doxorubicin) [µM]	AUC (TG101348)	IC50 (TG101348) [µM]	AUC (UNC1215)	IC50 (UNC1215) [µM]
KYSE-220 (oesophagus, adherent)	0.843	7.65	0.903	> 20	0.985	> 10	0.709	5.06	0.969	> 10	0.965	> 5.12	0.721	1100	0.913	> 1	0.549	0.0879	0.787	4.72	0.983	> 1
GT3TKB (stomach, adherent)	0.802	4.23	0.99	> 20	0.987	> 10	0.916	> 20	0.932	> 10	0.989	> 5.12	0.468	207	0.524	0.0722	0.4	0.0354	0.979	> 10.2	0.989	> 1
ES4 (Ewing sarcoma, adherent)	0.856	9.98	0.805	11.9	0.975	> 10	0.301	0.314	0.81	6.25	0.958	> 5.12	0.69	931	0.92	> 1	0.203	0.00722	0.591	1.18	0.98	> 1
NCI-H2291 (lung adenocarcinoma, adherent)	0.926	> 10	0.977	> 20	0.983	> 10	0.982	> 20	0.956	> 10	0.984	> 5.12	0.826	3760	0.734	0.382	0.971	> 1.02	0.984	> 10.2	0.982	> 1
SH-4 (melanoma, adherent)	0.936	> 10	0.928	> 20	0.974	> 10	0.636	3.65	0.97	> 10	0.615	0.787	0.773	2520	0.593	0.129	0.553	0.0965	0.909	> 10.2	0.959	> 1
8-MG-BA (glioma, adherent)	0.893	> 10	0.937	> 20	0.954	> 10	0.318	0.402	0.895	> 10	0.976	> 5.12	0.394	130	0.584	0.105	0.36	0.0269	0.86	7.76	0.986	> 1
NCI-H524 (small cell lung carcinoma, suspension)	0.977	> 10	0.991	> 20	0.955	> 10	0.249	0.262	0.778	3.62	0.991	> 5.12	0.851	2560	0.984	> 1	0.985	> 1.02	0.81	4.7	0.987	> 1
VA-ES-BJ (soft tissue, adherent)	0.912	> 10	0.984	> 20	0.967	> 10	0.571	1.98	0.983	> 10	0.985	> 5.12	0.713	1040	0.457	0.0473	0.445	0.045	0.973	> 10.2	0.984	> 1
LOU-NH91 (lung squamous cell carcinoma, adherent)	0.943	> 10	0.986	> 20	0.986	> 10	0.977	> 20	0.985	> 10	0.985	> 5.12	0.702	982	0.462	0.0489	0.929	> 1.02	0.794	5.18	0.985	> 1
NCI-H1781 (lung adenocarcinoma, adherent)	0.95	> 10	0.987	> 20	0.989	> 10	0.989	> 20	0.971	> 10	0.911	> 5.12	0.909	> 4000	0.805	0.505	0.433	0.042	0.989	> 10.2	0.96	> 1
A101D (melanoma, adherent)	0.957	> 10	0.961	> 20	0.852	> 10	0.981	> 20	0.936	> 10	0.841	4.83	0.467	199	0.779	0.51	0.456	0.0474	0.981	> 10.2	0.978	> 1
C32 (melanoma, adherent)	0.883	> 10	0.987	> 20	0.986	> 10	0.982	> 20	0.887	> 10	0.929	> 5.12	0.944	> 4000	0.176	0.00604	0.971	> 1.02	0.962	> 10.2	0.985	> 1
HGC-27 (stomach, adherent)	0.844	5.61	0.956	> 20	0.955	> 10	0.208	0.206	0.97	> 10	0.965	> 5.12	0.459	197	0.29	0.0178	0.192	0.0094	0.849	5.99	0.983	> 1
HT-115 (large intestine, adherent)	0.975	> 10	0.989	> 20	0.991	> 10	0.986	> 20	0.942	> 10	0.977	> 5.12	0.478	219	0.895	> 1	0.991	> 1.02	0.954	> 10.2	0.991	> 1
no-11 (glioma, adherent)	0.788	5.62	0.956	> 20	0.983	> 10	0.771	9.63	0.976	> 10	0.975	> 5.12	0.449	175	0.749	0.397	0.749	0.407	0.848	> 10.2	0.981	> 1
MHH-ES-1 (Ewing sarcoma, adherent)	0.866	8.7	0.875	19.3	0.972	> 10	0.195	0.157	0.899	> 10	0.942	> 5.12	0.438	169	0.737	0.294	0.397	0.0335	0.608	1.26	0.984	> 1
NB(TU)1-10 (neuroblastoma, adherent)	0.993	> 10	0.877	15.5	0.963	> 10	0.967	> 20	0.993	> 10	0.535	0.394	0.716	923	0.989	> 1	0.672	0.179	0.987	> 10.2	0.993	> 1
NCI-H1304 (small cell lung carcinoma, suspension)	0.929	> 10	0.987	> 20	0.972	> 10	0.713	5.29	0.907	> 10	0.961	> 5.12	0.628	580	0.963	> 1	0.748	0.352	0.87	> 10.2	0.973	> 1
NOMO-1 (acute myeloid leukaemia, suspension)	0.876	> 10	0.878	> 20	0.887	> 10	0.352	0.457	0.863	> 10	0.801	2.9	0.44	168	0.865	> 1	0.692	0.239	0.632	1.56	0.98	> 1
NCI-H345 (small cell lung carcinoma, suspension)	0.984	> 10	0.99	> 20	0.99	> 10	0.676	3.97	0.988	> 10	0.99	> 5.12	0.652	677	0.977	> 1	0.914	> 1.02	0.99	> 10.2	0.988	> 1
TE-9 (oesophagus, adherent)	0.856	8.56	0.987	> 20	0.977	> 10	0.964	> 20	0.985	> 10	0.977	> 5.12	0.719	1070	0.708	0.248	0.657	0.178	0.987	> 10.2	0.983	> 1

Reference: the supplement of paper PMC4967469
